Test results published in publication PMC6919601, “Identification of Plasmodium dipeptidyl aminopeptidase allosteric inhibitors by high throughput screening” (PLoS ONE, 2019).
Out of some 110,000 compounds screened, about 230 (0.21%) showed an effect of 50% or more. This is one part of the list.

Target: DPAP1 (Plasmodium falciparum, UniProt Q8IIJ9)
Assay: primary screen, percent inhibition; read by cleavage of a fluorogenic dipeptide substrate; higher = more effect of the substance
Set-up: species or system P. falciparum D10 trophozoite lysates; single well
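Further: 30 min substrate incubation versus DMSO and 10 µM JCP410 controls.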

Sequence of DPAP1 (Q8IIJ9 whole entry, looked up): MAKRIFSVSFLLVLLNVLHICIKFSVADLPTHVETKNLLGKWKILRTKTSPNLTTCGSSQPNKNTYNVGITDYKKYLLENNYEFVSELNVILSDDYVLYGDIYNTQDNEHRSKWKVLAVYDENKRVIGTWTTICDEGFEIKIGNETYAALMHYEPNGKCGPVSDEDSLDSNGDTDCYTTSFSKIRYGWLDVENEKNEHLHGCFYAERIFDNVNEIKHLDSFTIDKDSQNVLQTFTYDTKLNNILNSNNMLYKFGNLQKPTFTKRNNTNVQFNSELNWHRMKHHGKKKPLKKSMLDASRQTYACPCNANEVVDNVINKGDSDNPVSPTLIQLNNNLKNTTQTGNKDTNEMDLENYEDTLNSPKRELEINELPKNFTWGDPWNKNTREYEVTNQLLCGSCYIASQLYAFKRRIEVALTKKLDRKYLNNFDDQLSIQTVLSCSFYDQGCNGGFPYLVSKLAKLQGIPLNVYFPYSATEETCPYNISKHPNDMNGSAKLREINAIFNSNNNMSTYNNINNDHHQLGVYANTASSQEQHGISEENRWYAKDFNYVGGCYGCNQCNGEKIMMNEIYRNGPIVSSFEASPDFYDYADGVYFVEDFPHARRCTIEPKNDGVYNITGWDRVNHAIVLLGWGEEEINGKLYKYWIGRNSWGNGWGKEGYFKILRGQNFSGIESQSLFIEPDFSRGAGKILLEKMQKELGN

Structure (SMILES)	% Inhibition @ 10 uM [%]
CO/C(O)=C1\C(C)=NC2=C(C(=O)c3ccccc32)C1c1ccc(Br)o1 (stereo not shown)	-3.14
CC(c1ccccc1)c1nnc(NC(=O)C2CCCCC2)s1 (stereo not shown)	4.86
CC(Oc1ccccc1)C(=O)NCc1nc(-c2ccccc2)no1 (stereo not shown)	-6.72
CC1CC(=O)NN=C1c1ccc(N)c([N+](=O)[O-])c1 (stereo not shown)	3.58
COc1ccc(OC)c(-n2c(SCC(=O)N3CCCCCC3)nnc2-c2c[nH]c3ccccc23)c1	2.12
C=CCOc1ccccc1CN1CCC(C(N)=O)CC1	-7.17
Cc1cccc2c3c([nH]c12)CCN(C)C3	0.726
CCOC(=O)c1cn2ncc(C(=O)OCC)c2nc1C	-2.83
Cc1cccc(-n2ncc3c(NCCCN(C)C)ncnc32)c1	5.23
COc1cc(C(=O)Nc2nc(-c3ccc(Cl)cc3)cs2)cc(OC)c1OC	5.24
CC(=O)N1CCN(Cc2cccc(Cl)c2Cl)CC1	-0.446
CC1CCCN(C(=O)Cn2cc(S(=O)(=O)N3CCCC3)c(S(=O)(=O)N3CCCC3)c2)C1 (stereo not shown)	5.66
O=C1COc2ccccc2N1Cc1ccccc1	2.23
Cc1nc2c(c(C)c1CCC(=O)NC(C)CCc1ccco1)c(=O)n(C)c(=O)n2C (stereo not shown)	-8.91
Cc1ccc(CNC(=O)COc2ccc(Br)c(C)c2)cc1	1.83
Cc1cccc(N2C(=O)c3ccc(C(=O)OC(C)C)cc3C2=O)c1	2.7
CN1C2=C(C(=O)CCC2)C(c2cc(Cl)ccc2OCC(=O)O)C2=C1CCCC2=O	-4.16
Cc1ccc2nc(O)nc(-c3ccccc3)c2c1	-10.2
Cc1ccccc1C(=O)Nc1sc2c(c1C(=O)N1CCOCC1)CCC(C(C)(C)C)C2 (stereo not shown)	-1.4
COc1ccc(-c2ccc(CCC(=O)O)n2Cc2ccco2)cc1	0.812
COCCNC(=O)C1CCCCN1S(=O)(=O)c1ccc(F)cc1 (stereo not shown)	0.414
COc1ccc(C2CC(=O)c3sc(N)nc3C2)cc1 (stereo not shown)	2.69

Structure (SMILES)	% Inhibition @ 10 uM [%]
COc1ccc(C(=O)O)cc1COc1ccc(Br)cc1	5.87
CCc1ccccc1NC(=O)c1cccc(OC)c1	-4.59
CCOc1ccc(C(=O)NCC23CC4CC(C2)CC(CNC(=O)c2ccc(OCC)cc2)(C4)C3)cc1	-0.703
CC1C(c2cccs2)=[N+]([O-])C(C)(c2ccc(Cl)cc2)N1O (stereo not shown)	5.05
CCOC(=O)N1CCN(C2CCN(CC)CC2)CC1	-0.603
Cc1ccc(C)c(OCc2ccc(C(=O)O)o2)c1	-3.13
CCCSc1nc2ccc(C)cc2cc1C#N	-0.864
CCNc1nc2nc(O)cc(O)c2s1	3.39
CC(=O)N1CCC(N2CCN(C/C=C/c3ccccc3)CC2)CC1	-0.132
Cc1ccc(C(=O)Nc2ccccc2C(N)=O)o1	-6.24
COc1cccc(Cn2c(C)c(CNCCc3ccccc3C)c(C(=O)O)c2C)c1	-7.36
Cc1ccc(CN(Cc2ccco2)C(=O)c2ccccc2Br)cc1	-0.45
CCOC(=O)N1CCC(NCCc2ccccc2F)CC1	-3.27
CCC(C)c1ccc(NC(=O)c2ccc(Br)o2)cc1 (stereo not shown)	1.15
Cc1cc(NC(=O)C2CCCN2S(=O)(=O)c2ccc(Cl)cc2)ccc1Br (stereo not shown)	0.291
COC(=O)C1=CN(CCC23CC4CC(CC(C4)C2)C3)C=C(C(=O)OC)C1c1ccc2c(c1)OCO2	-4.04
CCSc1nc2c(c(=O)n(C)c(=O)n2C)n1Cc1c(F)cccc1Cl	-2.77
O=C(Cc1ccccc1)N1CCC(c2ccccc2)C1 (stereo not shown)	-3.38
CC1CCc2c(sc(NC(=O)Cn3c(-c4nonc4N)nc4ccccc43)c2C#N)C1 (stereo not shown)	-4.04
Cc1ccc(S(=O)(=O)NCc2ccc(C(=O)NCCC(C)C)cc2)cc1	-5.67
O/N=C(\C=C\c1ccccc1)c1ccccc1	-0.128
CC1=C(C(=O)NCC(C)c2ccccc2)C2(CCCCC2)OC1=O (stereo not shown)	-1.89

Structure (SMILES)	% Inhibition @ 10 uM [%]
CC1=CC(c2ccc(Cl)cc2)n2nc(N3C(=O)c4ccccc4C3=O)nc2N1 (stereo not shown)	2.31
CSc1ncc(C(=O)NCc2ccc3c(c2)OCO3)c(C)n1	-2.15
Cc1ccc(C(=O)NC(C)c2ccccc2)o1 (stereo not shown)	-3.71
CC(CCc1ccco1)NC(=O)c1cc2c(-c3ccccc3F)nn(C)c2s1 (stereo not shown)	1.24
Cc1ccc(Cl)cc1S(=O)(=O)N1CCC(C(=O)O)CC1	-3.08
c1cn2c3c(n1)CCCc3c1cc(C34CC5CC(CC(C5)C3)C4)ccc12	-6.71
Cc1ccc2nc(NC(=O)Nc3ccc(F)cc3)sc2c1	5.49
NC(=O)c1c(NC(=O)c2ccc(Cl)c(Cl)c2)sc2c1CCC2	0.331
COc1cc(C2CC(=O)NC3=C2C(=O)CC(C)(C)C3)cc(OC)c1OC (stereo not shown)	-7.27
CCOC(=O)C1(C#N)C2(CCCCCC2)C1(C#N)C(=O)OCC (stereo not shown)	-3.58
COc1cc(C2NC(=O)NC(C)=C2C(=O)Nc2ccc(C)cc2)cc(OC)c1OC (stereo not shown)	-1.55
CN(C)CCCN1C(=O)C(O)=C(C(=O)c2ccccc2)C1c1cccnc1 (stereo not shown)	-1.6
Cc1ccc2oc(=O)c3cc(C(=O)N4CCOCC4)sc3c2c1	3.6
c1ccc(-n2nnnc2SCCSc2nnnn2-c2ccccc2)cc1	-5.35
c1ccc(CSc2ncn(-c3ccccc3)n2)cc1	2.79
Cc1ccc(NC(=O)CSc2ncn(-c3ccccc3)n2)c(C)c1	2.82
Cc1c(Cl)cccc1NCc1ccc(OCc2ccccc2)cc1	-3.8
CC1CCN(C2CCN(C)CC2)CC1	-1.82
Oc1cccc(-c2nc(S)c3c(n2)Oc2ccccc2C3)c1	45.8
O=C(COc1ccc(Cl)cc1Cl)Nc1cccc(Br)c1	1.7
c1cncc(-c2cc(N3CCOCC3)c3ccccc3n2)c1	-3.8
O=C(Cn1ncc2c1-c1ccccc1OC2)N1CCC(N2CCCCC2)CC1	-4.21

Structure (SMILES)	% Inhibition @ 10 uM [%]
COc1ccc(-c2noc(CN(C(=O)CCc3ccccc3)C(C)C)n2)cc1	0.232
CC(C)n1c(Br)nc2c1c(=O)n(C)c(=O)n2C	-3.27
O=P(OCCN1CCOCC1)(c1ccccc1)c1ccccc1	2.62
COCCCNC(=O)COc1ccc2c(c1)C(=O)CC(C)(C)O2	0.0654
COCCOC(=O)Nc1nc2ccc(OC)cc2s1	0.266
CCOc1ccc(NC(=O)CN(C2CCCCC2)S(C)(=O)=O)cc1	0.145
CCc1cc2c(-n3nc(C)cc3C)ncnc2s1	-2.42
CC12CN3CC(C)(CN(C1)C31CCCC1)C2O (stereo not shown)	-4.03
Cc1ccc(C)n1Cc1ccc(Cl)cc1	-2.8
O=C(c1noc2c1COc1ccccc1-2)N(Cc1ccccc1)Cc1cccs1	3.3
C=C(C)[C@@H]1CC=C(CN2CCN(C/C=C/c3ccccc3)CC2)CC1	7.28
O=C(Oc1ccccc1)SC1CCS(=O)(=O)C1 (stereo not shown)	-5.28
c1ccc(-c2nc(-c3ccccn3)c(-c3ccccn3)[nH]2)cc1	5.49
COc1ccccc1C(=O)Nc1c2c(nn1-c1ccc(C)cc1C)CS(=O)(=O)C2	3.08
CNC(=O)CCc1nc(-c2ccc(C(C)(C)C)cc2)no1	0.366
O=C(NCc1ccco1)c1cccc(Cl)c1	0.912
O=C(Cc1ccccc1)N1CCN(Cc2c[nH]c3ccccc23)CC1	0.147
COc1ccc(-c2cn3nc(N4CCC(C(=O)NCCC5=CCCCC5)CC4)sc3n2)cc1	-0.878
CCN(CC)CC(C)CNC(=O)C1CCN(S(=O)(=O)c2ccc(C)cc2)CC1 (stereo not shown)	-1.34
Cc1nnc(N2CCC(C(=O)NCCc3ccc(Cl)cc3)CC2)c2nn(-c3ccccc3)c(C)c12	0.58
CC(=O)N1CCN(Cc2ccc(Cl)cc2Cl)CC1	-0.603
COC(=O)c1c(NC(=O)COc2ccccc2C)sc(C)c1C	-6.6

Structure (SMILES)	% Inhibition @ 10 uM [%]
CCc1ccc(-c2csc(N)n2)cc1	-0.807
C1=C(c2ccccc2)Nc2nc3ccccc3n2C1c1ccccc1 (stereo not shown)	2.86
Cc1ccc(S(=O)(=O)c2cnc3ccccc3c2O)cc1C	1.42
COc1ccc(OCC(O)CN2CCN(C)CC2)cc1 (stereo not shown)	0.51
c1sc2c(c1CN1CCOCC1)CCCC2	0.124
CC(C)(C)c1ccc(C(=O)NCCN2CCOCC2)cc1	5.09
CCN(CC)C(=O)c1ccc(Oc2nnnn2-c2ccccc2)c(OC)c1	1.84
Cc1ccc(OCC(=O)Nc2cccc(C)c2)cc1	1.59
CCOc1ccc(C2c3c(-c4ccccc4O)n[nH]c3C(=O)N2CCCOC(C)C)cc1 (stereo not shown)	0.155
CC1CCCCN1C1CCN(Cc2ccccc2)CC1 (stereo not shown)	-0.0908
COc1ccc(OC)c(CNC(=O)CCc2nc(-c3cccs3)no2)c1	-7.21
CCOC(=O)C1=C(C)N=c2s/c(=C\c3cccs3)c(=O)n2C1c1ccc(C)cc1 (stereo not shown)	1.27
Cc1cc(C(=O)Nc2cccc(C(F)(F)F)c2)ccc1[N+](=O)[O-]	-2.42
C=CCN(CC=C)C(=O)C1c2ccccc2Oc2ccccc21	5.25
Oc1nc2ccc3nsnc3c2nc1O	-2.18
CCCCOc1ccc(/C=C(/C#N)c2nc(-c3ccccc3)cs2)cc1	-0.771
Cc1nc2cc(-c3cccc(F)c3)nn2c(C)c1CCC(=O)NCc1cccnc1	-0.465
COc1cc(C2C(C#N)=C(N)Oc3c2c(=O)oc2ccccc32)ccc1O (stereo not shown)	0.147
